Where “and” joins values, the source holds several entries; their conditions need not be identical. Equal values may be shown once.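 Following 48 hours of exposure in 96-well plates, responses at five concentrations were used to interpolate endpoints linearly. At the GI50, growth is halved. At the TGI there is no net growth.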
test system: NCI-H322M lung; experiment: inhibition of tumour cell growth, NCI panel, 48 h

Row | Compound | TGI | GI50 [µM]
1 | CC(=O)O[C@H]1C(=O)[C@@]2(C)[C@H]([C@H](OC(=O)c3ccc([N+](=O)[O-])cc3)[C@]3(O)C[C@H](OC(=O)[C@H](O)[C@@H](NC(=O)c4ccccc4)c4ccccc4)C(C)=C1C3(C)C)[C@]1(OC(C)=O)CO[C@@H]1C[C@@H]2O | > 25 µM | –
2 | COc1ccc(NC(=O)c2sc3nc(C)c(C(O)c4ccc(OC)cc4)cc3c2N)cc1 (configuration not stated) | > 50 µM | 0.34
3 | CC1=CC2(O)OC3(CC2=C(C)C)C(C)CCC13 (configuration not stated) | > 100 µM | –
4 | CCC(CC)C(=O)OC[n+]1cccc(-c2c(COC(=O)NC(C)C)c(COC(=O)NC(C)C)c3n2CCC3)c1 | > 100 µM | –
5 | COc1cc(/C=C2\CC3C4CC=C5C[C@@H](N6CCCC6)CC[C@]5(C)C4CC[C@]3(C)[C@H]2OC(C)=O)ccc1OCCN1CCCCC1 (some centres not stated) | 1.95 µM | 0.468
6 | CS(=O)c1ccc(-c2nc(-c3ccc(F)cc3)c(-c3ccncc3)[nH]2)cc1 (configuration not stated) | > 100 µM | 29.6
7 | C[C@H]1CCC/C=C/[C@@H]2C[C@H](O)C[C@H]2[C@H](O)[C@@H](S(=O)CCN)CC(=O)O1 (some centres not stated) | 3.09 µM | 0.0497
8 | CCN(Cc1nc2cc(C(F)(F)F)ccc2nc1-c1ccccc1)c1ccc(OC)c(OC)c1 | > 100 µM | 31
9 | CC(C)=CCC/C(C)=C/CC/C(=C/COP(=O)(OCc1ccc([N+](=O)[O-])o1)N(C)CCCCCl)CC=C(C)C (configuration not stated) | 38.5 µM | 20.2
10 | CC[C@H](Nc1nc(N)nc(N)c1Cl)c1nc2cccc(NCc3ccc(C(=O)NO)cc3)c2c(=O)n1-c1ccccc1 | 7.18 µM | 2.25
11 | c1ccc2c[n+](CCCCCCCCCC[n+]3ccc4ccccc4c3)ccc2c1 | > 10 µM | –
12 | Cc1c2ccnc(-c3ccccc3)c2cc2c1[nH]c1ccccc12 | 11.5 µM | –
13 | O=C(NCCCNC(=O)OCc1ccc2c(Br)cc(Br)c(O)c2n1)OCc1ccc2c(Br)cc(Br)c(O)c2n1 | > 100 µM | > 100
14 | O=C(Nc1cccc(C(F)(F)F)c1)c1cccc(NC2=C(Cl)C(=O)N(Cc3ccccc3)C2=O)c1 | > 100 µM | > 100
15 | CCCCCC(=O)OCC(=O)[C@H]1[C@H](C)C[C@H]2[C@@H]3C[C@H](F)C4=C/C(=N/OC(=O)c5cccc6c(=O)c7ccccc7[nH]c56)C=C[C@]4(C)[C@H]3[C@@H](O)C[C@@]21C | > 100 µM | –
16 | COc1cc(OC)c(OC)cc1/C=C1\C=Cc2ccccc21 | > 100 µM | –
17 | O=C1/C(=C/c2ccc(Cl)cc2)NC(=S)N1CN1CCOCC1 | > 100 µM | –
18 | CN(C)c1ccc2nc3c(C(=O)O)cc(=O)c(O)c-3oc2c1 | > 100 µM | –
19 | CC(=O)n1nc(-c2nc3ccccc3nc2Cl)cc1Cl | 73.9 µM | –

Row | Compound | TGI | GI50 [µM]
20 | Cn1cnc2c(OCC3CCCCC3)nc(N)nc21 | > 100 µM | –
21 | O=C(O)C(Br)C(Br)c1ccccc1[N+](=O)[O-] (configuration not stated) | > 100 µM | –
22 | OCC(O)COc1c(Cl)ccc(Cl)c1Cl (configuration not stated) | > 100 µM | –
23 | Cn1c2ccccc2c(=O)c2c(O)cc3c(c21)C=CC1(CCCC1)O3 | > 100 µM | –
24 | CN(C)CCOC1(Cc2ccc(Cl)cc2Cl)CCC(C(C)(C)C)CC1 (configuration not stated) | 3.14 µM and 3.23 µM | –
25 | O=C(Nc1cccc2cccnc12)c1ccc(N2C(=O)[C@@H]3[C@H](C2=O)[C@@H]2C=C[C@H]3C2)cc1 | > 100 µM | > 66.3
26 | Cn1cnc([N+](=O)[O-])c1SCC(=O)O | > 100 µM | –
27 | N#CC1=C(C#N)/C(=C(\C#N)C(C#N)C#N)N=C1N | 34.9 µM | –
28 | O=C1NC(=O)C2(CCC(O)C2)c2cc[n+]([O-])cc21 (configuration not stated) | > 100 µM | –
29 | Nc1nc(Cl)cc(NCC2(CO)CCC2)n1 | > 100 µM | –
30 | NC(=O)C12C3C4C1C1C2C3C41C(N)=O (configuration not stated) | > 100 µM | –
31 | CC(=O)NCC1(c2ccccc2)CCN(CC2COc3ccccc3O2)CC1 (configuration not stated) | > 100 µM | –
32 | CCCC(=O)N/S(=N/S(=O)(=O)c1ccc(Cl)cc1)C(Cl)(Cl)Cl (configuration not stated) | > 100 µM | –
33 | CC1(C)C=C(/C=N/Nc2ccc(Br)cc2)C(C#N)=C(O)C1(C#N)C#N | > 100 µM | –
34 | Nc1nc(N)nc(-c2cnccn2)n1 | > 100 µM | –
35 | O=c1n(-c2ccccc2)c(=O)n2n1C1CCC2CC1 | > 100 µM | –
36 | NC1=CC(C(=O)c2ccncc2)c2nc3ccccc3nc21 (configuration not stated) | > 100 µM | –
37 | Cn1c(=O)c2c(nc(C[N+]3([O-])CCOCC3)n2C)n(C)c1=O | > 100 µM | –
